According to ChEMBL document CHEMBL4888484, “Replenishing the malaria drug discovery pipeline: Screening and hit evaluation of the MMV Hit Generation Library 1 (HGL1) against asexual blood stage Plasmodium falciparum ,using a nano luciferase reporter read-out” (2022):
The campaign covered roughly 4,800 compounds. About 410 (8.5%) showed an effect of 50% or more. The list shows a part of the results.

Test system: Plasmodium falciparum
Assay: Confirmatory screen in NF54 pLDH assay, in single point, at 2uM, 72h
Format: functional, Erythrocyte
Conditions: timepoint 72 hour

Row | Compound | % Inhibition
1 | CN1CCC(Nc2ncnc3c2cnn3C)C1c1ccc(Cl)cc1 (stereo not drawn) | 12%
2 | COC(=O)C1NS(=O)(=O)c2ccc(Cl)cc2C1(O)c1ccccc1F (stereo not drawn) | 4%
3 | COc1cc(NS(=O)(=O)c2ccc(-n3cnnn3)cc2)nc(OC)n1 | 9%
4 | Brc1cccc(-c2ccc(-c3cc(-c4ccccc4)nnc3-c3ccccc3)o2)c1 | 6%
5 | O=C(Cc1ccc(Oc2nccc(C(F)(F)F)n2)cc1)NCCO | 7%
6 | CN(C)c1c(F)c(F)c2cc3c(C(C)(C)C)nn(C)c3nc2c1F | 17%
7 | Cc1ccccc1C(=O)N(Cc1cccc(F)c1)c1ccc(CC(=O)NCCN2CCCCC2)cc1 | 39%
8 | O=C([C@H]1CCCN(C(=O)N2CCc3sccc3C2)C1)N1CCc2[nH]ncc2C1 | -7%
9 | CC[C@@]1(c2ccc(NC(=O)Cc3c[nH]c4ccccc34)cc2)CCC(=O)NC1=O | -4%
10 | O=S1(=O)NC(c2cccc(F)c2)=Nc2ccc(S(=O)(=O)N3CCOCC3)cc21 | -11%
11 | O=C(Nc1cc(NC(=O)c2ccc(F)cc2)cc(Oc2cccnc2)c1)c1ccc(F)cc1 | 5%
12 | CN(Cc1nnc[nH]1)C(=O)C1(C)CCC1 | -9%
13 | COc1ccc(C2=CN(CC(=O)c3ccc(Cl)cc3)C3=CCCCCN23)cc1 | 41%
14 | Cc1nc(-c2cccnc2)nc(NCCNC(=O)C(C)(C)C)c1C | 5%
15 | CN(C)c1ccc(Nc2ccc(F)cc2S(=O)(=O)C(F)(F)F)cn1 | -1%
16 | COCCOc1ccc2c(n1)CCN(C(=O)c1ccc(OC)c(OC)c1)C2 | -8%
17 | O=S(=O)(c1cccc(Cl)c1)N1CCc2nc(N3CCCCC3)nc(Oc3ccccc3)c2C1 | 78%
18 | O=S(=O)(Nc1ccc(F)cc1OCC1CC1)c1cn[nH]c1 | -6%
19 | COc1cccc(-c2cc(O)cc(CC[C@H]3CCCCN3)c2)n1 | 89%
20 | c1coc(CNc2nc(Nc3cccc4ccccc34)nc3ccccc23)c1 | 50%
21 | CC1CCN(C(=O)c2c(-c3ccccc3)nc3n2CCS3(=O)=O)CC1 | -6%
22 | O=C1C[C@@]2(CCCN(c3nc(C4CC4)ns3)C2)CN1 | -7%
23 | COCCC(=O)N1CC[C@H](c2nc(C3CCOCC3)no2)C1 | 6%
24 | CCC1(CC)NC(=O)N(CC(=O)Nc2cccc(CC(=O)OC)n2)C1=O | -20%
25 | Cc1cc(Cl)ccc1OCc1cccc(-c2nc3c4cn[nH]c4ncn3n2)c1 | 8%
26 | O=C(Nc1ccc(C(F)(F)F)cc1)N1CCN(CC(O)C2CCCO2)CC1 (stereo not drawn) | 10%

Row | Compound | % Inhibition
27 | Cc1cc(C)c(OC(=O)c2ccc(Cl)cc2Cl)c(CNC(=O)c2ccccc2)c1 | -15%
28 | CCOC(=O)C1(C(=O)OCC)CN(c2ccccc2)[C@H](C(=O)OC)C1(C(=O)OCC)C(=O)OCC | 11%
29 | Cc1ccc(-c2cc3c(N4CC=C(c5ccccc5)CC4)nccn3n2)c(C)c1 | 14%
30 | COc1ccc(C)cc1NC(=O)N1CC(c2nc(C(C)C)nn2C)C1 | 1%
31 | CCO[C@H]1C[C@H](NC(=O)Nc2ccc(F)c(C3CC3)c2)C1 | 8%
32 | Cn1ccc(CN2CCN(c3ccccc3)CC2)n1 | 6%
33 | Cc1nnc2sc(-c3cnn(-c4ccccn4)c3C(F)(F)F)nn12 | -4%
34 | CN(C(=O)c1ccc2ncsc2c1)c1ccccc1 | -12%
35 | O=c1[nH]c(=O)n(S(=O)(=O)c2ccccc2)cc1F | 87%
36 | Cc1ccc(-c2cc(C(=O)Nc3nnc(C(C)C)s3)no2)cc1F | 16%
37 | COc1ccc(C(=O)C[n+]2cc(-c3ccc(OC)cc3)n3c2CCCC3)cc1 | 65%
38 | CCOc1ccccc1NC(=O)C[C@H]1CCc2nnc(C3CCCC3)n2CC1 | 3%
39 | O=C(N[C@@H]1CC=C(c2ccc(F)cc2)CC1)c1nc2n(n1)CCCN2 | 10%
40 | Cc1ccc(Cc2nn3c(C4CCN(S(C)(=O)=O)CC4)nnc3s2)cc1C | -3%
41 | CC(C)N(C(=O)CCN1C(=O)CCC1=O)c1ccccc1Br | -19%
42 | COc1ccc(CNC(=O)[C@H](C)n2ccc3cc(S(=O)(=O)N4CCCC4)ccc32)cc1OC | 9%
43 | CC1(C)OCc2cc(CNc3ccc4oc(=O)[nH]c4c3)ccc2O1 | 100%
44 | N#Cc1ccc(C(=O)N[C@H]2CCCc3c2cnn3-c2ccccn2)cc1 | 9%
45 | CN1CCCN(c2ccnc3ccsc23)CC1 | 39%
46 | CC(C)C(NC(=O)c1ccccc1F)C(=O)NC1CCC(N(C)C)C1 (stereo not drawn) | -9%
47 | O=C(C#Cc1ccc(C(F)(F)F)cc1)NCC1(CO)CCC1 | 12%
48 | O=C(C1CC12CCCC2)N1CCCC(S(=O)(=O)N2CCc3ccccc32)C1 (stereo not drawn) | 8%
49 | COc1cc2c(cc1CNc1nc(N)nc3c1CCNCC3)CCC2 | 11%
50 | CC(C)(C)C(=O)Nc1cc(Br)c(O)c(Br)c1 | -1%
51 | CN(CCN(C)C1CC1)C(=O)c1cc2[nH]cnc2cc1F | 15%
52 | CCOC(=O)c1oc(NC(=O)OC(C)(C)C)nc1C(F)(F)F | 5%

Row | Compound | % Inhibition
53 | CN1CCC(N2CCC(CN(Cc3ccncc3)Cc3c(F)cccc3Cl)CC2)CC1 | 99%
54 | O=C(NC1CCN(Cc2ccco2)CC1)c1ccco1 | -2%
55 | Cc1cc2ncc(-n3cncn3)c(-c3ccccc3)n2n1 | 8%
56 | O=C(c1ccc(COc2ccccc2Br)cc1)N1CCN(c2cccc(C(F)(F)F)c2)CC1 | -16%
57 | O=C1Nc2ccccc2O[C@H]2C[C@@H]1N(CC1CC1)C2 | -10%
58 | Cc1cc2ncn([C@@H](C)c3nc(-c4cnccn4)cs3)c2cc1C | 3%
59 | Cc1ccnc(-n2nccc2NC(=O)[C@H](C)Oc2ccccc2)c1 | 0%
60 | Cn1ncc(-c2ncc(C(F)(F)F)cc2Cl)c1N | 8%
61 | COc1ccc(N(C)S(=O)(=O)c2ccc3c(c2)CCN3C(=O)C2CCC2)cc1 | 9%
62 | Cc1ccc(N2C(=O)c3ccccc3[C@@H]2c2c[nH]c3ccccc23)cc1 | 37%
63 | NS(=O)(=O)N1CCN(Cc2ccn(C3CCCC3)n2)CC1 | 9%
64 | COC(=O)c1c(NC(C)=O)c2cc(NC3CCOCC3)cnc2n1CCc1ccc(OC)cc1 | 61%
65 | Cc1noc(C)c1CNC(=O)[C@H]1CCc2nnc(C3CCOCC3)n2CC1 | -23%
66 | O=C(COCC(=O)Nc1cccc(Cl)c1Cl)NCCC1=CCCCC1 | 5%
67 | CC[C@H](O)CCNC(=O)Nc1ncc(CC(C)C)s1 | 2%
68 | CC(C)n1[nH]c(=O)c2c1NC(=O)C[C@H]2C1CCCCC1 | 10%
69 | CC1NC2(C(=O)N(Cc3ccc(F)cc3)c3ccccc32)C2C(=O)N(c3cccc4ccccc34)C(=O)C12 (stereo not drawn) | 2%
70 | Cc1cc2nn(CC(=O)Nc3ccc(C)c(C)c3)c(=O)n2c(-c2ccc(C(F)(F)F)cc2)n1 | 1%
71 | O=C(Nc1onc2c1CCC2)c1ccc2ccccc2c1 | 41%
72 | COc1cccnc1NC(=O)c1cnn(C)c1 | 9%
73 | NC(=O)N1CCC[C@H]1C(=O)NC1CC(=O)N(C2CC2c2ccccc2)C1 (stereo partly drawn) | 8%
74 | O=C(CCC(=O)c1ccc(F)cc1F)NS(=O)(=O)c1cccnc1 | 1%
75 | CC(=O)c1ccc(NC(=O)Cn2c(-c3ccccc3)nc(C)cc2=O)cc1 | 10%
76 | Cc1ccc(F)cc1-n1c(=O)c2sccc2n(CC(=O)Nc2ccc3c(c2)CCC3)c1=O | 13%
77 | CCN(CC)CCNCc1sccc1C | -16%
78 | Cc1noc(C)c1C(=O)NC[C@H](O)Cn1ccccc1=O | 6%

Row | Compound | % Inhibition
79 | Cc1cc(OC(=O)c2cccnc2)c(C(C)C)cc1NC1=NS(=O)(=O)c2ccccc21 | -6%
80 | COc1ccc(CCNc2oc(-c3cccnc3)nc2C#N)cc1OC | -5%
81 | OCCNCc1ccc(Cl)cc1Cl | 6%
82 | CCNC(=O)N1CC[C@H](Oc2ccc3ccccc3n2)C1 | 32%
83 | Cc1cc(S(=O)(=O)Nc2cn(C)c(=O)n(C)c2=O)sc1Cl | -10%
84 | O=C1CCC2(CCN(S(=O)(=O)c3ccc(F)cc3F)CC2)N1 | 8%
85 | CC(=O)N1c2c(C)cccc2[C@@H](C)CC1(C)C | 16%
86 | CN1C(=O)[C@H](O)N(c2cccc3ccccc23)C1=O | 9%
87 | CNC(=NCC(C)(C)c1ccc(OC)cc1)NC | 7%
88 | O=C(c1ccccc1OCC1CC1)N1CC(O)C1 | -3%
89 | Cc1ncc(C(=O)Nc2cc3c(=O)[nH]cnc3cc2F)c(C2CC2)n1 | 0%
90 | CC(C)n1cc(CN[C@@]2(CO)CCCc3ccccc32)cn1 | 11%
91 | Cc1cccc(NC(=O)c2cc(C)nc3c2c(C)nn3-c2ccc(F)cc2)c1 | 0%
92 | Cc1ccc(CNC(=O)N2CC[C@H](CC(=O)N(C)Cc3ccccc3)C2)cc1 | 12%
93 | Cn1c(N2CCN(C(=O)C[C@@H]3NC(=O)c4ccccc4N=C3O)CC2)nc2ccccc21 | -4%
94 | Nc1cc(F)c(Br)cc1Cl | 7%
95 | O=S(=O)(N[C@H]1CCc2nnc(-c3ccc(F)cc3)n2C1)N1CCCCC1 | 13%
96 | Cc1ccc(OCc2cccc(C(=O)N3CCC[C@@H]3CN3CCCCC3)c2)cn1 | 9%
97 | O=c1[nH]c2nc(N3CCCCC3)ncc2c(=O)n1Cc1ccco1 | -14%
98 | COCc1cc2nn(CC(=O)Nc3ccc4c(c3)OCO4)c(=O)n2c(-c2ccccc2)n1 | 12%
99 | Nc1c(Br)cc2oc(-c3ccc4ccccc4c3)nc2c1Br | 14%
100 | O=C(NCc1cc(F)cc(F)c1)c1ccc2ccccc2n1 | 14%
101 | O=S(=O)(c1ccc(Cl)cc1)N1CCN(C2CCCC2)CC1 | 14%
102 | COc1ccc(C(OC)C(C)NC(=O)Cc2c(C)[nH]c3ccnn3c2=O)cc1 (stereo not drawn) | -15%
103 | Cc1ccc(NS(=O)(=O)c2ccc(NC(=O)Cc3ccccc3)cc2)cc1C | 10%
